Test results from patent publication US20240270860A1.
Results are given in words; binding and its absence hold for the method and conditions named. Some results given as binding are weak or reduced against the parent protein; the word gives no strength. Sequences can lack the tags named with a protein.

Chains of the proteins cited; added tags and fusions are not shown. Lines headed by an entry give the natural chain unless they say otherwise; changes in a name come on top.
UniProt P20333: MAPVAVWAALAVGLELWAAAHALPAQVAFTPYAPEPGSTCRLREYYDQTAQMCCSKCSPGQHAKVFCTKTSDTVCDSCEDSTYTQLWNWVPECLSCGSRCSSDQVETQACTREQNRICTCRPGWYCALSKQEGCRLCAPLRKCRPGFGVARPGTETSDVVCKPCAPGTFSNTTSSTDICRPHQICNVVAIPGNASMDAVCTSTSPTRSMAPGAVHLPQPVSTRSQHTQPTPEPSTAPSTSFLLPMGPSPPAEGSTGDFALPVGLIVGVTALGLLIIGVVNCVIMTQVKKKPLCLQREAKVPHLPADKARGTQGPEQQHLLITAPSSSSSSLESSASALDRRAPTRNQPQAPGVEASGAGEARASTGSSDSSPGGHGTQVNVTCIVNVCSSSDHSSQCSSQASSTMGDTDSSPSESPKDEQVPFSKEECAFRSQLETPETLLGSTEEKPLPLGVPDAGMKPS

How the values were obtained:
[1] = target: T1, S04077; experiment: linear peptide ELISA
T1 sequence (peptide): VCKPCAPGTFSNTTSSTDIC

[2] = target: T2, S04063; experiment: linear peptide ELISA
T2 sequence (peptide): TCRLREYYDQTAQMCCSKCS

[3] = target: T3, S04076; experiment: linear peptide ELISA
T3 sequence (peptide): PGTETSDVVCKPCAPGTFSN

[4] = target: T4, S04081; experiment: linear peptide ELISA
T4 sequence (peptide): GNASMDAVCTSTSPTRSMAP

[5] = target: T5, S03931; experiment: linear peptide ELISA
T5 sequence (peptide): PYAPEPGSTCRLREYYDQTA

[6] = target: T6, S04078; experiment: linear peptide ELISA
T6 sequence (peptide): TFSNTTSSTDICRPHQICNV

[7] = target: T7, S04075; experiment: linear peptide ELISA
T7 sequence (peptide): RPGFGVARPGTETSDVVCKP

[8] = target: T8, S04069; experiment: linear peptide ELISA
T8 sequence (peptide): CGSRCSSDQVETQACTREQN

[9] = target: T9, S04067; experiment: linear peptide ELISA
T9 sequence (peptide): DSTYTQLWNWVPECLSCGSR

[10] = target: T10, S04068; experiment: linear peptide ELISA
T10 sequence (peptide): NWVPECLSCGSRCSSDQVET

[11] = target: T11, S04062; experiment: linear peptide ELISA
T11 sequence (peptide): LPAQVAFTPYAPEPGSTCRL

[12] = target: T12, S04065; experiment: linear peptide ELISA
T12 sequence (peptide): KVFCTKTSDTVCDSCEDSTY

[13] = target: T13, S04070; experiment: linear peptide ELISA
T13 sequence (peptide): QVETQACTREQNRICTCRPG

[14] = target: T14, S04064; experiment: linear peptide ELISA
T14 sequence (peptide): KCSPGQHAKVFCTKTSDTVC

[15] = target: T15, S04079; experiment: linear peptide ELISA
T15 sequence (peptide): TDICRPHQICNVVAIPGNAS

[16] = target: T16, S04066; experiment: linear peptide ELISA
T16 sequence (peptide): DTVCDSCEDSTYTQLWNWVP

[17] = target: T17, S04080; experiment: linear peptide ELISA
T17 sequence (peptide): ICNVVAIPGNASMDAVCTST

[18] = target: recombinant human TNFR2 (human) (UniProt P20333); experiment: ELISA, linear peptide mapping with the full-length protein
[19] = target: T18, S04072; experiment: linear peptide ELISA with TNF competition
T18 sequence (peptide): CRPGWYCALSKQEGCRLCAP

[20] = target: T19, S04071; experiment: linear peptide ELISA with TNF competition
T19 sequence (peptide): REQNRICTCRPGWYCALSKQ

[21] = target: recombinant human TNFR2 (human) (UniProt P20333); experiment: SPR

B1: antagonistic TNFR2 antibody TNFRAB1 (antibody, V domains shown)
VH: EVQLQESGGGLVKPGGSLKLSCAASGFTFSSYVMSWVRQTPEKRLEWVATISSGGSYTYYPDSVKGRFTISRDNAKNTLYLQMSSLRSEDTAMYYCARQRVDGYSSYWYFDVWGAGTAVTVSS
VL: DIVLTQSPAIMSASPGEKVTITCSASSSVYYMYWFQQKPGTSPKLWIYSTSNLASGVPVRFSGSGSGTSYSLTISRMEAEDAATYYCQQRRNYPYTFGGGTKLEIKR
For B1, the binding [1] was “no binding (tested: 0.1 µg/well)”, the binding [2] was “no binding (tested: 0.1 µg/well)” and the binding [3] was “no binding (tested: 0.1 µg/well)”. The binding [4] was “no binding (tested: 0.1 µg/well)”, the binding [5] was “no binding (tested: 0.1 µg/well)” and the binding [6] was “no binding (tested: 0.1 µg/well)”. The binding [7] was “no binding (tested: 0.1 µg/well)”, the binding [8] was “no binding (tested: 0.1 µg/well)” and the binding [9] was “no binding (tested: 0.1 µg/well)”. For the same binder, the binding [10] was “no binding (tested: 0.1 µg/well)”, the binding [11] was “no binding (tested: 0.1 µg/well)” and the binding [12] was “no binding (tested: 0.1 µg/well)”. The binding [13] was “no binding (tested: 0.1 µg/well)”, the binding [14] was “no binding (tested: 0.1 µg/well)” and the binding [15] was “no binding (tested: 0.1 µg/well)”. The binding [16] was “no binding (tested: 0.1 µg/well)”, the binding [17] was “no binding (tested: 0.1 µg/well)” and the binding [18] was “binds”. The binding [19] was “binds”, the binding [20] was “binds” and the binding [21] was “binds”.
